Assay results taken from PubChem BioAssay AID1508623 (National Center for Advancing Translational Sciences (NCATS), 2021).
The whole screen tested about 48,000 compounds, of which about 450 (0.94%) were called active. Inconclusive results (about 19%) are left out. Calls follow the shape of the dose curve; as a rule, active = well fitted inhibition curve with a large enough effect; inconclusive = small, poorly fitted or top-dose-only effect; inactive = no such curve, though single readings can be large or run the other way. This is one part of the list.

Assay: Primary qHTS for Identification of Small Molecule Inhibitors of Huntingtin Promoter Activity; also: nearly all actives have a fitted effect of over 50% in size
Conditions: HEK293 HTT promoter firefly luciferase reporter (activity 0% = vehicle and -100% = no light), 24 h; series mostly up to 57.5 µM; activity change, negative = inhibition: at the top concentration
Procedure, shortened: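 HEK293 cells carrying firefly luciferase reporters were seeded at 2,500 per well in Opti-MEM and cultured for 24 h. They were then treated with compounds at up to 57.5 uM final for 24 h at 37 degrees C before Dual-Glo luminescence readout.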

Activity change, negative = inhibition, inactive:
Cc1oc2c(c1C(=O)Nc1ccccc1Br)C1=NCCN1C=N2 -1.72%, O=C(NCCc1cccs1)c1ccc(Cn2c(SCc3ccccc3)nc3cccnc32)cc1 -3.33%, COc1cccc(CNC(=O)c2sc3nc4n(c(=O)c3c2C)CCC4)c1 24.9%, CCOc1ccccc1NC(=O)Cn1cnc2c1c(=O)n(C)c(=O)n2C -6.68%, COc1ccc(N2CC3=C(C2=O)C(c2ccc(O)c(OC)c2)NC(=O)N3C)cc1 (stereo not given) -0.586%, CCOC(=O)c1ccccc1NC(=O)c1cc2c(s1)-c1c(C)cccc1OC2 -22.8%, CCOc1ccccc1NC(=O)CSc1nc2c(oc3ccccc32)c(=O)n1C(C)C -11.6%, COCCCNC(=O)c1cc(-c2ccc(OC)cc2)nc2n[nH]c(-c3ccc(Cl)cc3)c12 -26.2%, COc1ccc(CCNC(=O)c2cnc3ccc(C)cn3c2=O)cc1OC -7.52%, Cn1ncc2c(NCc3ccc(Cl)cc3)ncnc21 -17.3%, Cc1ccsc1CN(Cc1ccco1)C(=O)c1ccc(Cl)cc1 -23.5%, Cc1ccc(C)c(N2CCN(S(=O)(=O)c3ccc(-c4cc(C(F)(F)F)on4)s3)CC2)c1 -1.9%, O=C(CN1C(=O)COc2ccc(S(=O)(=O)N3CCOCC3)cc21)Nc1ccc(F)c(Cl)c1 -16.1%, O=C(Nc1nc2ccc(F)cc2s1)c1nc(SCc2ccccc2F)ncc1Cl -12.5%, COc1cc(OC)c(N(C)C(=O)c2cn(C)c(=O)c3cc(OC)c(OC)cc23)cc1Cl -2.7%, O=C(Nc1nc2c(F)cc(F)cc2s1)c1ccc2c(c1)OCCO2 73%, O=C(NCCc1ccc(Cl)cc1)C(=O)NCC(c1ccc2c(c1)OCO2)N1CCOCC1 (stereo not given) 0.35%, CC(C)c1c(C(=O)Nc2ccccc2)c(-c2ccccc2)c(-c2ccc(F)cc2)n1CC[C@@H](O)C[C@@H](O)CC(=O)O 17.9%, O=C(Nc1cc(C(F)(F)F)ccc1Cl)c1cc(-c2cccs2)nc2ccccc12 -1.77%, Cc1cc(C)c(S(=O)(=O)NCCc2sc(-c3cccnc3)nc2C)c(C)c1 -25.9%, Cc1cc(S(=O)(=O)Nc2cc3c(cc2Cl)n(C)c(=O)c(=O)n3C)ccc1F -11.8%, Cn1c(=O)c2cc(C(=O)N3CCN(c4cccc(C(F)(F)F)c4)CC3)sc2c2ccccc21 -19.1%, Cc1nn(S(=O)(=O)c2ccc(F)cc2)c(C)c1S(=O)(=O)N1CCCCC1 -7.8%, Cc1c(C(=O)Nc2cccc(C(F)(F)F)c2)oc2ccc(S(=O)(=O)N3CCC4(CC3)OCCO4)cc12 -30.8%, CCN[C@H]1CN(CCCOC)S(=O)(=O)c2sc(S(N)(=O)=O)cc21 -4.95%, COc1ccc(NC(=O)CSc2c3c(nc4ccccc24)CCC3)cc1Cl -14.9%, Cc1ccc2c(c1)N(C(=O)CCC(=O)Nc1ccc(F)cc1F)CC(C)O2 (stereo not given) -34.5%, CCOc1ccc(NC(=O)c2ccc3c(c2)nnn3C2CCCC2)cc1 -10.2%, CCc1ccccc1NC(=O)CSc1nc(C)c(C(=O)Nc2ccccc2)c(-c2ccc(Cl)cc2)c1C#N -38.9%, Cc1ccc(NC(=O)C2CCN(S(=O)(=O)c3cccc4nonc34)CC2)c(Cl)c1 1.26%, CCOC(=O)c1c(C)[nH]c(C)c1S(=O)(=O)N1CCC(C(=O)NCc2cccc(C)c2)CC1 -19.7%, O=C(Nc1ccc(-c2nc3ccccc3s2)c(O)c1)c1ccc(Br)cc1 12.3%, Cc1cccc(NC(=O)CSc2nnc3[nH]c(=O)cc(C)n23)c1C -4.2%, COc1ccc(N2CCN(C(=O)c3cnc(SC)nc3C)CC2)cc1 12.2%, COc1ccc(-c2cc3c(=O)n(CC(=O)Nc4ccc(Br)c(C)c4)ccn3n2)cc1OC -0.787%, O=C(CCn1c(=O)c2cccn2c2cccnc21)Nc1ccccc1Br -3.42%, Cc1ccc(S(=O)(=O)c2nnn3c2nc(N2CCN(c4ccccc4F)CC2)c2cc(Cl)ccc23)cc1C -11.1%, CC(=O)N1c2c(cc(Br)cc2S(=O)(=O)N2CCN(c3cc(C)ccc3C)CC2)CC1C (stereo not given) -11.7%, OC[C@H](Cc1ccccc1)Nc1nc(Oc2ccc3c(c2)CCC3)nc2c1ncn2Cc1ccc(-c2ccccc2)cc1 -9.29%, Cc1ccc(S(=O)(=O)c2nnn3c2nc(N2CCCC2)c2sccc23)cc1C -11.3%, CC1=C(C#N)C(NC(=O)c2ccccc2Cl)(C(F)(F)F)C(=O)N1 (stereo not given) 0.489%, COc1ccc(OC)c(NC(=O)C2=C(C)C(=O)OC23CCCCCC3)c1 -6.6%, CCN(CC)CCCNC(=O)c1cnc(SC)nc1-c1ccccc1 -2.2%, CCN(CC)CCCNC(=O)c1cn(C)c2ccc(S(=O)(=O)N(C)C3CCCCC3)cc2c1=O -5.72%, CCOCCc1nn2c(=O)cc(COC(=O)CNC(=O)c3cccc(C)c3)nc2s1 -3.99%, Cc1ccc2c(=O)cc(C(=O)Nc3nc4ccc(Cl)cc4s3)oc2c1C -7.67%, COc1cccc(-c2ncnn2-c2sc3c(c2C#N)CCCCC3)c1OC 13.3%, O=C(COc1ccc(Cl)cc1)Nc1nnc(S(=O)(=O)N2CCc3ccccc32)s1 -16.7%, COc1ccc(CNc2nc3c(-c4cccc(C)c4)nnn3c3ccccc23)cc1 -10.9%, CCOc1ccc(NC(=O)c2cnc(N3CCCC3)nc2C)cc1 -11.5%, Cc1nn(CC(=O)N2CCC(C)CC2)c(=O)c2cc3sccc3n12 -0.621%, CCOc1ccc(CCNC(=O)c2cn(C)c3ccc(S(=O)(=O)N4CCCCCC4)cc3c2=O)cc1OCC -11.1%, CCOC(=O)c1c(C)[nH]c(C)c1S(=O)(=O)N(C)CC(=O)N1CCN(c2ccccc2)CC1 -14.7%, COc1ccccc1NC(=O)c1c(NCc2ccc(OC)c(OC)c2OC)sc2c1CCC2 -25.3%, CC(C)c1ccc(NC(=O)Cn2cc(S(=O)(=O)N3CCN(c4ccccc4F)CC3)c3ccccc3c2=O)cc1 -4.07%, OC(Cn1cncn1)(Cn1cncn1)c1ccc(F)cc1F, Cc1cc(Cl)ccc1OCc1nc(-c2ccc(-n3cccc3)cc2)no1 -14.8% [at 11.5 µM], CCCCOC(=O)c1ccc(NC(=O)c2cc3c(=O)n4cccc(C)c4nc3s2)cc1 19.4%, CCCNC(=O)CCc1nnc2ccc(N3CCN(c4cccc(OC)c4)CC3)nn12 6.91%, CCCCN(C)CCNC(=O)c1c2c(nc3ccccc13)C(=O)N(C1CCCCC1)C2 -8.17%, CC(C)(C)OC(=O)N1CCC(c2c(C(=O)NCCN3CCc4ccccc4C3)cnn2-c2ccc(F)cc2F)CC1 -9.55%, Cc1ccc(CN2CCC(CNC(=O)Nc3ccc(Cl)cc3)C2)cc1 (stereo not given) -25.2%, Cc1ccc(NC(=O)CCn2c(=O)c3cccn3c3ccccc32)cc1C -15.6%, Cc1ccc(-n2c(=O)c3cccnc3n2CC(=O)Nc2ccc(Br)cc2)cc1C -10.2%, CCC(=O)N1CCc2cc(Br)cc(S(=O)(=O)CCC(=O)NCCc3cccc(C)c3)c21 -2.25%, Cn1ncc2c(N3CCN(c4cccc(Cl)c4)CC3)ncnc21 -20.5%, Cc1cc(C)cc(NC(=O)C(Cc2ccccc2)NS(=O)(=O)c2ccc3c(c2)c(=O)n(C)c(=O)n3C)c1 (stereo not given) -31.6%, COc1ccc(C)cc1NC(=O)CCS(=O)(=O)c1cc2c3c(c1)CCN3C(=O)CC2 -6.39%, CCOc1ccc(Oc2nc(NCC(C)C)nc(N3CCOCC3)n2)nn1 16.2%, CC(=O)N1CCc2cc(CNC(=O)Cc3ccc(F)cc3)ccc21 62.6%, COc1cccc(CNC(=O)C(=O)NCC(c2ccco2)S(=O)(=O)c2cccs2)c1 (stereo not given) -26.2%, CC(C)(C)C(=O)Cn1c(=O)n(-c2ccc(Cl)cc2)c(=O)c2c3c(sc21)CCCC3 -6.59%, O=C(/C=C/c1ccccc1)N1CCN(Cc2cc(=O)n3nc(-c4ccccc4F)sc3n2)CC1 -11.1%, C[C@@H](NCCCc1cccc(C(F)(F)F)c1)c1cccc2ccccc12 -9.01%, CC(=O)Nc1cccc(-n2c(=O)n(C3CC3)c(=O)c3c(Nc4ccc(I)cc4F)n(C)c(=O)c(C)c32)c1 9.87%, COc1ccc(N2CC(NC(=O)/C=C\c3ccccc3)CC2=O)cc1 (stereo not given) 5.93%, O=C(Cn1c(SCCOc2ccccc2)nc2ccccc21)N1CCOCC1 -10.8%, COc1ccc(Cl)cc1N(C)C(=O)c1ccc2c(=O)n3c(nc2c1)CCCCC3 -18.5%, COc1ccc(NC(=O)Cn2c(=O)n(CCC(=O)NCc3ccccc3OC)c(=O)c3ccccc32)cc1Cl -10.4%, Cc1ccc(Cn2ccn(Cc3ccccc3F)c(=O)c2=O)cc1 -9.65%, Cc1nc2c(-c3ccccc3)c(C)nn2c(C)c1CCC(=O)N1CCN(c2ccc(F)cc2)CC1 -26.4%, Cc1c(Cl)cccc1NC(=O)COCc1cc(-c2ccc3c(c2)OCO3)on1 -5.62%, CSc1ccc(CCNC(=O)c2ccc(-c3nc(COc4ccccc4)c(C)o3)cc2)cc1 -7.69%, Cc1cccc(N2CCN(CCCNc3ncnc4onc(-c5ccc(Cl)cc5)c34)CC2C)c1 (stereo not given) -11.1%, COc1ccc(CCNC(=O)CCn2c(=O)c3ccccc3n(Cc3cc(C)ccc3C)c2=O)cc1OC -11.4%, Cc1ccc2nc(-c3ccc(Cl)c(NC(=O)COc4cccc(C)c4C)c3)oc2c1 -10.9%, Cc1cccc(NC(=O)c2ccc3snnc3c2)c1 48%, Cc1cc2c(cc1NS(=O)(=O)c1ccc(F)cc1)n(C)c(=O)c(=O)n2C 1.57%, CCCc1cc(=O)[nH]c2nnc(SC(C)CC)n12 (stereo not given) -11.4%, CCOC(=O)c1sc(NC(=O)/C=C/c2ccc(C(C)C)cc2)c(C(=O)OCC)c1C 1.5%, CCc1cccc(C)c1NS(=O)(=O)c1cc2[nH]c(=O)c(=O)[nH]c2cc1C 3.46%, CCc1nnc(SCC(=O)Nc2ccccc2Cl)nc1CC -22.6%, CCc1ccc(NCc2cc3cc4c(cc3n(CC(=O)Nc3cccc(OC)c3)c2=O)OCO4)cc1 -21.3%, CC(C)COc1ccc(C(=O)NCC2(N3CCN(C)CC3)CCCCC2)cc1 -9.97%, CCc1ccc2ncc3c(-c4ccccc4)nn(-c4ccccc4)c3c2c1 -14.3%
